The source of these data is paper PMC4336329 (PLoS ONE, 2015).

Screen size: about 310,000 compounds; about 2,200 (0.71%) showed an effect of 50% or more. Effects have a minus sign here. This is one part of the list.

human ether-à-go-go-related gene (hERG) potassium channel, sequence (Q12809 whole entry, looked up): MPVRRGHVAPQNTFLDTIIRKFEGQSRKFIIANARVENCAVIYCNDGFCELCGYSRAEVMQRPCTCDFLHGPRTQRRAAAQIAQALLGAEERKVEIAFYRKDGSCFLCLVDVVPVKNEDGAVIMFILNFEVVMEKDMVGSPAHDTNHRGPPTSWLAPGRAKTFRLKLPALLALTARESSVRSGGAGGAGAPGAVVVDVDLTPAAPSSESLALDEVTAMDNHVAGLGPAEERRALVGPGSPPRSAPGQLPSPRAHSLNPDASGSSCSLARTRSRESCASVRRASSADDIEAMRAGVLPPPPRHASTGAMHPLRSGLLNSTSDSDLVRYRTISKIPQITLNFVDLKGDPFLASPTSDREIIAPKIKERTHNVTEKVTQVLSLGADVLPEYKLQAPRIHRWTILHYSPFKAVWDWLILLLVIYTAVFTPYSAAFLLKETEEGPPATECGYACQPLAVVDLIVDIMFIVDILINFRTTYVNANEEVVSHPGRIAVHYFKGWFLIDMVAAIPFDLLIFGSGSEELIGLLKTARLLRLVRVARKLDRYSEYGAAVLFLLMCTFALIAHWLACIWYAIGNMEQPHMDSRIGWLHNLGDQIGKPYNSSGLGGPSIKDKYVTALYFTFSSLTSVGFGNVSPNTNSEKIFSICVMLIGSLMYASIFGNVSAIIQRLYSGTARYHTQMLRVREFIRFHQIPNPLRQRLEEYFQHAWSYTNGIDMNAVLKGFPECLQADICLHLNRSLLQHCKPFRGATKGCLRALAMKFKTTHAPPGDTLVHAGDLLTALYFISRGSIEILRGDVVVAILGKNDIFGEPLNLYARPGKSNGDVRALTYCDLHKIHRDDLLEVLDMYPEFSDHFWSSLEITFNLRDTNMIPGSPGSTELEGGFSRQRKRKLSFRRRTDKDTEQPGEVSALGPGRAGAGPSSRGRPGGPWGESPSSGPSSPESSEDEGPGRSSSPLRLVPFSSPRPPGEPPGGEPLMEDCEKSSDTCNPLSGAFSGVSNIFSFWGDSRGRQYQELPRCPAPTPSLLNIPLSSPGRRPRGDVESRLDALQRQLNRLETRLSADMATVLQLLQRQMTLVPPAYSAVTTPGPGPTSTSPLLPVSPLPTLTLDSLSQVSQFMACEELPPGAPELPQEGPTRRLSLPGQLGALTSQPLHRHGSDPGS

This assay has as its target human ether-à-go-go-related gene (hERG) potassium channel (human, UniProt Q12809). In words: primary screen, population patch clamp on CHO cells stably expressing hERG.
Consider `c1cncc(-c2csc(NCc3ccco3)n2)c1`, for which the “hERG current change (%, negative = inhibition) at 1uM” value came to 8.93%. In the case of `Cc1cccc(Cn2cnc3c(sc4nc(C)cc(C)c43)c2=O)c1`, the “hERG current change (%, negative = inhibition) at 1uM” value was found to be 10.5%. The result for `Cc1ccsc1/C=N/NS(=O)(=O)c1ccc([N+](=O)[O-])cc1` reads 3.03%; that for `O=C(Nc1cccc(-c2nc3ccccc3s2)c1)C1=COCCO1`, 5.84%. The result for `O=C(COc1cc([N+](=O)[O-])cc2cccnc12)NCCC1=CCCCC1` reads -34.6%. The result for `Cc1ccn2c(NC(=O)c3ccco3)c(-c3ccccc3)nc2c1` reads 6.02%; that for `CCOC(=O)CSC1=NN2CCS(=O)(=O)N=C2S1`, 18.8%. Take `C=CCSc1nnc(CNC(=O)c2ccccc2C)n1C(C)C`: the “hERG current change (%, negative = inhibition) at 1uM” value is listed as 11.8%. The same measure for `CC1N(C)c2cc(NC(=O)c3cccs3)c(P(=O)(Nc3ccc([N+](=O)[O-])cc3)N3CCOCC3)cc2C1(C)C` (stereo not drawn): 13.7%.

Consider `O=C(CCN1C(=O)c2ccccc2C1=O)NCCC1=CCCCC1`, for which the “hERG current change (%, negative = inhibition) at 1uM” value is on record as -1.26%. In the case of `CC(CC(=O)O)C(=O)c1ccc(Cl)c([N+](=O)[O-])c1` (stereo not drawn), the “hERG current change (%, negative = inhibition) at 1uM” value is 16.2%. The result for `Cc1ccc2nc(/C(C#N)=C/c3ccc(-c4ccccc4C(=O)O)o3)[nH]c2c1` reads 13.5%; that for `COc1ccc(NC(=O)c2sc(N3CCOCC3)nc2-c2ccccc2)c(OC)c1`, -1.09%; that for `C=CCN(C(=O)Nc1ccc2oc(C)nc2c1)c1ccccc1`, -0.898%. The result for `CC(C)(C)OC(=O)N/N=C/c1cc(N=Nc2ccccc2)ccc1O` reads 14.3%; that for `COC(=O)CCC(=O)Nc1ccc(S(=O)(=O)Nc2cc(OC)nc(OC)n2)cc1`, 0.393%. The result for `O=C(COC(=O)c1ccc(NS(=O)(=O)c2cccs2)cc1O)Nc1ccc(F)cc1` reads 14.3%; that for `COc1ccc(NC(=S)NNC(=O)Cn2nc(C(F)F)cc2C(F)F)cc1`, 10.2%; that for `O=C(NC1=NCCS1)c1ccc(Cl)c(S(=O)(=O)N2CCCCC2)c1`, 7.3%. `Cc1ccc(S(=O)(=O)N2CCCN(C(=O)CNC(=O)c3cccc(C)c3)CC2)cc1`: the “hERG current change (%, negative = inhibition) at 1uM” value was -23.6%.

On to `CC(=O)N=C1SC2CS(=O)(=O)CC2N1Cc1ccc(C)cc1` (stereo not drawn), for which the “hERG current change (%, negative = inhibition) at 1uM” value is 6.15%. The same measure for `Cc1c(CC(=O)O)c(=O)oc2cc3occ(-c4ccccc4)c3cc12`: -7.78%.

As to `O=C(/C=C/c1ccco1)Nc1ccccn1`, the “hERG current change (%, negative = inhibition) at 1uM” value is 12.7%. Consider `CC(CCc1ccccc1)NCCC#N.Cl` (stereo not drawn), for which the “hERG current change (%, negative = inhibition) at 1uM” value stood at 8.28%.

Turning to `COCCn1c(SCC(=O)Nc2sccc2C(N)=O)nnc1-c1ccncc1`, the “hERG current change (%, negative = inhibition) at 1uM” value amounted to 1.99%. The result for `Cc1ccc(S(=O)(=O)CCc2nnc(NC(=O)CCl)s2)cc1C` reads 0.514%.

Take `Oc1ccc(/C=N/N2CCN(C3c4ccccc4-c4ccccc43)CC2)cc1O`: the “hERG current change (%, negative = inhibition) at 1uM” value was 15.2%. The result for `Cc1cccc(Nc2ccccc2C(=O)OCC(=O)N2CCOCC2)c1C` reads 8.09%; that for `CCc1sc(C(=O)Nc2cc(Cl)ccc2N2CCCCC2)cc1C`, -1.76%; that for `CN(Cc1cc2cc(F)ccc2[nH]1)Cc1nc(-c2cnccn2)no1`, 0.822%.

`CC(C)CC(C)c1cc(N)nc2nc3ccccc3n12` (stereo not drawn): the “hERG current change (%, negative = inhibition) at 1uM” value was -16.1%.

As to `COc1ccc(C(=O)Nc2ccc3c(c2)C(=O)NC3=O)cc1`, the “hERG current change (%, negative = inhibition) at 1uM” value was 7.09%. The result for `O=C(CC1(O)C(=O)Nc2ccccc21)c1ccc(-n2cnnn2)cc1` (stereo not drawn) reads 15.5%; that for `CC(C)N1CCN(CCCc2ccccc2)CC1CCO` (stereo not drawn), 11.6%; that for `CC(C)=C(NC(=O)c1ccccc1)C(=O)NCc1ccccc1`, 6.4%. The same measure for `O=C1CCCCC1Oc1ccc2ccc(=O)oc2c1` (stereo not drawn): 13.6%.

In the case of `Cc1nnc(NC(=O)CSc2cn(Cc3ccccc3)c3ccccc23)s1`, the “hERG current change (%, negative = inhibition) at 1uM” value is 3.59%. The result for `O=c1[nH]c(=S)n(C2CC2)c(O)c1/C=N/N1CCOCC1` reads 0.902%; that for `Cc1cc(OCCOCCNC(C)C)cc(C)c1Cl.O=C(O)C(=O)O`, -9.73%. The same measure for `COc1ccc2c(c1OC)C(=O)OC2CC(=O)O` (stereo not drawn): 15.2%; for `O=C1C2CCCN2C(c2cccs2)N1c1ccc(Cl)cc1` (stereo not drawn): 7.28%; for `Cc1nc2ncnn2c(C)c1Cc1ccc(Cl)cc1`: 9.93%. The same measure for `COc1ccc(OC)c2[nH]c(=O)c(CCNC(=O)c3ccc(S(=O)(=O)N4CCCC4)cc3)cc12`: -11.4%; for `Cc1nnc(N/N=C/c2cc(C)n(-c3ccc(F)cc3)c2C)n1N.Cl`: 6.13%. Turning to `COc1ccccc1CNS(=O)(=O)c1cc(CN2C(=O)c3cccnc3C2=O)ccc1OC`, the “hERG current change (%, negative = inhibition) at 1uM” value is reported as 11.8%.
